Reference: EP4737480A1 (Japan Science and Technology Agency, dated 2026)

Molecular target: recombinant HER2 molecule (UniProt P04626 part only)
Experiment: BLI (Octet N1), HER2 on streptavidin biosensor

B1: scFv trastuzumab light chain P95ΔP96Δ (scFv)
scFv: MDIQMTQSPSSLSASVGDRVTITCRASQDVNTAVAWYQQKPGKAPKLLIYSASFLYSGVPSRFSGSRSGTDFTLTISSLQPEDFATYYCQQHYTTTFGQGTKVEIKRGSGGGGSGGGGSGGGGSKL[about 120 residues omitted]ASTKGPSVFPLAPSSLE
notes: also called Tmb-scFvPPΔ; Tmb-ScFv-PPΔ
  Kd: 930 pM
  koff: 0.000155 s⁻¹
  kon: 167000 M⁻¹ s⁻¹
